These results are taken from publication PMC12820563.

The other results are listed elsewhere or left out. The list includes weakly bound sequences.

This experiment deals with T1, MBP-FoxP3dN (UniProt Q99JB6).
T1 sequence: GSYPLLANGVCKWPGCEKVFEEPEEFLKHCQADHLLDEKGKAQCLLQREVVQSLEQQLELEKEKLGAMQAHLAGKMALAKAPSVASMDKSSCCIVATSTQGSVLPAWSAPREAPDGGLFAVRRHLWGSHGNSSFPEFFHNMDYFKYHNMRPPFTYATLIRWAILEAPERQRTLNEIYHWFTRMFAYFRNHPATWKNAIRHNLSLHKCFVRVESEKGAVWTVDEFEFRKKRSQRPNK
The experiment can be described thus: PD-seq (MBP pull-down with sequencing). The following applies: 20 mM Tris-HCl pH 7.5, 100 mM NaCl, 1.5 mM MgCl2, 0.4 uM protein, 0.1 uM dsDNA library, 30 min, room temperature, amylose pull-down; high values mean tight binding; double strand, one strand shown.
With “GATGATTGTTCTCCCAGCTGATGAATTAGGTAGATCGAGTAAACAAATTTTCCTAATCTTTCTGTTCAAGCGCCATCTAC”, the binding signal (RPM ratio (pull-down/input)) is 0.385.
For “GATGATTGTTCTCCCAGCTGATGAATTGCACCCATCGAGTAAACAAATTTTCCTAATCTTTCTGTTCAAGCGCCATCTAC”, the binding signal (RPM ratio (pull-down/input)) turned out to be 0.908.
Regarding “GATGATTGTTCTCCCAGCTGATGAATTCATCGAGTCGAGTAAACAAATTTTCCTAATCTTTCTGTTCAAGCGCCATCTAC”, the binding signal (RPM ratio (pull-down/input)) worked out at 0.268.
The figure for “GATGATTGTTCTCCCAGCTGATGAATTCATCAGCTCGAGTAAACAAATTTTCCTAATCTTTCTGTTCAAGCGCCATCTAC” is 0.35; for “GATGATTGTTCTCCCAGCTGATGAATTGGGACAATCGAGTAAACAAATTTTCCTAATCTTTCTGTTCAAGCGCCATCTAC” it is 0.597.
The figure for “GATGATTGTTCTCCCAGCTGATGAATTACGCTACTCGAGTAAACAAATTTTCCTAATCTTTCTGTTCAAGCGCCATCTAC” is 1.87; for “GATGATTGTTCTCCCAGCTGATGAATTGTAGTTGTCGAGTAAACAAATTTTCCTAATCTTTCTGTTCAAGCGCCATCTAC” it is 2.31.
With “GATGATTGTTCTCCCAGCTGATGAATTAGAGGGCTCGAGTAAACAAATTTTCCTAATCTTTCTGTTCAAGCGCCATCTAC” the figure was 0.304; with “GATGATTGTTCTCCCAGCTGATGAATTCGTATAGTCGAGTAAACAAATTTTCCTAATCTTTCTGTTCAAGCGCCATCTAC”, 1.39.
As for “GATGATTGTTCTCCCAGCTGATGAATTTAGAGCGTCGAGTAAACAAATTTTCCTAATCTTTCTGTTCAAGCGCCATCTAC”, the binding signal (RPM ratio (pull-down/input)) was found to be 0.533.
Take “GATGATTGTTCTCCCAGCTGATGAATTACGCTATTCGAGTAAACAAATTTTCCTAATCTTTCTGTTCAAGCGCCATCTAC”: the binding signal (RPM ratio (pull-down/input)) was 2.21.
As to “GATGATTGTTCTCCCAGCTGATGAATTCTCCTCGTCGAGTAAACAAATTTTCCTAATCTTTCTGTTCAAGCGCCATCTAC”, the binding signal (RPM ratio (pull-down/input)) was determined as 0.201.
As for “GATGATTGTTCTCCCAGCTGATGAATTGTTGTTATCGAGTAAACAAATTTTCCTAATCTTTCTGTTCAAGCGCCATCTAC”, the binding signal (RPM ratio (pull-down/input)) was 6.7.
With “GATGATTGTTCTCCCAGCTGATGAATTCACGAAATCGAGTAAACAAATTTTCCTAATCTTTCTGTTCAAGCGCCATCTAC” the figure was 0.244.
The figure for “GATGATTGTTCTCCCAGCTGATGAATTCAAGGAATCGAGTAAACAAATTTTCCTAATCTTTCTGTTCAAGCGCCATCTAC” is 0.188; for “GATGATTGTTCTCCCAGCTGATGAATTGCAGATGTCGAGTAAACAAATTTTCCTAATCTTTCTGTTCAAGCGCCATCTAC” it is 0.708; for “GATGATTGTTCTCCCAGCTGATGAATTCACTATTTCGAGTAAACAAATTTTCCTAATCTTTCTGTTCAAGCGCCATCTAC” it is 0.483.
In the case of “GATGATTGTTCTCCCAGCTGATGAATTCTGATTTTCGAGTAAACAAATTTTCCTAATCTTTCTGTTCAAGCGCCATCTAC”, the binding signal (RPM ratio (pull-down/input)) worked out at 1.27.
The figure for “GATGATTGTTCTCCCAGCTGATGAATTTTGTGCATCGAGTAAACAAATTTTCCTAATCTTTCTGTTCAAGCGCCATCTAC” is 2.27; for “GATGATTGTTCTCCCAGCTGATGAATTTTCAGTATCGAGTAAACAAATTTTCCTAATCTTTCTGTTCAAGCGCCATCTAC” it is 0.403.
Consider “GATGATTGTTCTCCCAGCTGATGAATTCGGTCCATCGAGTAAACAAATTTTCCTAATCTTTCTGTTCAAGCGCCATCTAC”, for which the binding signal (RPM ratio (pull-down/input)) turned out to be 0.372.
In the case of “GATGATTGTTCTCCCAGCTGATGAATTTATCAACTCGAGTAAACAAATTTTCCTAATCTTTCTGTTCAAGCGCCATCTAC”, the binding signal (RPM ratio (pull-down/input)) was determined as 0.865.
On to “GATGATTGTTCTCCCAGCTGATGAATTATCGTAATCGAGTAAACAAATTTTCCTAATCTTTCTGTTCAAGCGCCATCTAC”, for which the binding signal (RPM ratio (pull-down/input)) turned out to be 0.762.
With “GATGATTGTTCTCCCAGCTGATGAATTGATTATATCGAGTAAACAAATTTTCCTAATCTTTCTGTTCAAGCGCCATCTAC” the figure was 0.905; with “GATGATTGTTCTCCCAGCTGATGAATTCTCACGATCGAGTAAACAAATTTTCCTAATCTTTCTGTTCAAGCGCCATCTAC”, 0.235.
Take “GATGATTGTTCTCCCAGCTGATGAATTAGATTACTCGAGTAAACAAATTTTCCTAATCTTTCTGTTCAAGCGCCATCTAC”: the binding signal (RPM ratio (pull-down/input)) was 2.62.
Turning to “GATGATTGTTCTCCCAGCTGATGAATTCAAGGGATCGAGTAAACAAATTTTCCTAATCTTTCTGTTCAAGCGCCATCTAC”, the binding signal (RPM ratio (pull-down/input)) was found to be 0.208.
In the case of “GATGATTGTTCTCCCAGCTGATGAATTCGGACGATCGAGTAAACAAATTTTCCTAATCTTTCTGTTCAAGCGCCATCTAC”, the binding signal (RPM ratio (pull-down/input)) amounted to 0.211.
The figure for “GATGATTGTTCTCCCAGCTGATGAATTGTCGACGTCGAGTAAACAAATTTTCCTAATCTTTCTGTTCAAGCGCCATCTAC” is 0.381; for “GATGATTGTTCTCCCAGCTGATGAATTTGTTTGATCGAGTAAACAAATTTTCCTAATCTTTCTGTTCAAGCGCCATCTAC” it is 5.99; for “GATGATTGTTCTCCCAGCTGATGAATTCTCAATATCGAGTAAACAAATTTTCCTAATCTTTCTGTTCAAGCGCCATCTAC” it is 0.396.
With “GATGATTGTTCTCCCAGCTGATGAATTCTACCTGTCGAGTAAACAAATTTTCCTAATCTTTCTGTTCAAGCGCCATCTAC” the figure was 0.267; with “GATGATTGTTCTCCCAGCTGATGAATTCGGGAGTTCGAGTAAACAAATTTTCCTAATCTTTCTGTTCAAGCGCCATCTAC”, 0.402.
With “GATGATTGTTCTCCCAGCTGATGAATTACATGTGTCGAGTAAACAAATTTTCCTAATCTTTCTGTTCAAGCGCCATCTAC” the figure was 1.01.
As to “GATGATTGTTCTCCCAGCTGATGAATTCCAAAGTTCGAGTAAACAAATTTTCCTAATCTTTCTGTTCAAGCGCCATCTAC”, the binding signal (RPM ratio (pull-down/input)) was determined as 0.203.
Consider “GATGATTGTTCTCCCAGCTGATGAATTCCTATTTTCGAGTAAACAAATTTTCCTAATCTTTCTGTTCAAGCGCCATCTAC”, for which the binding signal (RPM ratio (pull-down/input)) worked out at 0.551.
For “GATGATTGTTCTCCCAGCTGATGAATTCACAGCGTCGAGTAAACAAATTTTCCTAATCTTTCTGTTCAAGCGCCATCTAC”, the binding signal (RPM ratio (pull-down/input)) is 0.437.
With “GATGATTGTTCTCCCAGCTGATGAATTCCCGGGCTCGAGTAAACAAATTTTCCTAATCTTTCTGTTCAAGCGCCATCTAC” the figure was 0.168; with “GATGATTGTTCTCCCAGCTGATGAATTCGTTGAGTCGAGTAAACAAATTTTCCTAATCTTTCTGTTCAAGCGCCATCTAC”, 0.74; with “GATGATTGTTCTCCCAGCTGATGAATTATTTAGTTCGAGTAAACAAATTTTCCTAATCTTTCTGTTCAAGCGCCATCTAC”, 1.29.
